Assay results as given in PMC12136788.
The list shows a part of the results.

B1: chr1:204554719:204554820:+|3pUTR|ENSG00000198625|unk|FALSE|unique (ssRNA)
RNA: GGGAGUUCUACAGUCCGACGAUCAAGUACUUUCUUUUGACAGAAAUUUUCAUUCUGCUUGCCAUUGCUAUAUUCUCCCUUUAUAGGAGCCAUUGGAUUUCUUUCCUUUUGUGGGAAAUGUCCCAUUAGCAUUUUCAGAUCUUUCAACAGAGGAUUGAGCAUCA
B2: chr4:65323451:65323552:-|3pUTR|ENSG00000145242|msi1|total|mutant (ssRNA)
RNA: GGGAGUUCUACAGUCCGACGAUCAUCAAGAAAAAGUACAAUACAGGGUGUAUAUUUAUUUUUUGUGUUAUAAAGUUUACUUUCCGUUGCUCUUCCCGAGAUUAUCCGGUAAUAAAUGUGUAUAUACUGUAUAAUUUGCAAUAUCAACAGAGGAUUGAGCAUCA
B3: chr3:87253716:87253817:+|CDS|ENSG00000083937|unk|total|mutant (ssRNA)
RNA: GGGAGUUCUACAGUCCGACGAUCUGCCUCUACUUCAAAGGCUACAAUCUCAGAUGAAGAGAUUGAACGGCAACUCAAGGCUUCCGGAGCCGAUCCGUCAAAAGAAGUCAUACUAUUUUGCUUACUUAUAAUUAUGCCGUAUAACAACAGAGGAUUGAGCAUCA
B4: chr9:113264340:113264441:+|3pUTR|ENSG00000136868|msi1|total|mutant (ssRNA)
RNA: GGGAGUUCUACAGUCCGACGAUCAAAGUCUGCAUUUGAUAUAAUGCCUUAAUUACUGGGUCUACAAUUAAUGUUGACUGUUUCCGAUUGUAAGCUCCUGGAGAGCAGUAUUGCUGCCGCCGGAAUGUUUUAACAGUGUCAUAUCAACAGAGGAUUGAGCAUCA
B5: chr3:11557161:11557262:-|3pUTR|ENSG00000144560|msi1|FALSE|unique (ssRNA)
RNA: GGGAGUUCUACAGUCCGACGAUCCCUCUGACUUUAUACUGUUAUUACUGCAUUUAUUAUUUGCUAUAUUAAUAGCUACUAACUAGAAAUUAGAUGAAGCAAGCAUGACAGACACAGCUGUGGAGGUCACAGCUGCUCCUUUUUCAACAGAGGAUUGAGCAUCA
B6: chr15:75505753:75505856:-|CDS|ENSG00000169410|unk|total|mutant (ssRNA)
RNA: GGGAGUUCUACAGUCCGACGAUCGGUGAACGGCCACCCAGAUCCCUUCGAUGAGAUCAUCCUGUUCUCCCUCCCUCCUGCCUCCGACUGGGACUCAGUACAUGUUCCAGGUCCCCAUGCUAUGACCAUCCAAGAGUUGGUGGACAACAGAGGAUUGAGCAUCA

target: MSI1 full-length (mouse, UniProt Q61474 1-362); experiment: nsRBNS (natural sequence RNA bind-n-seq); RBNS binding buffer (assumed for nsRBNS): 25 mM Tris pH 7.5, 150 mM KCl, 3 mM MgCl2, 0.01% Triton X-100, 500 ug/ml BSA, 20 U/ml SUPERase-In, 4 C; UNK is unkempt and MSI1 is Musashi-1; names of the RNAs are library labels; protein concentration not given here; high values mean tight binding
Chain of UniProt Q61474 (Q61474 whole entry): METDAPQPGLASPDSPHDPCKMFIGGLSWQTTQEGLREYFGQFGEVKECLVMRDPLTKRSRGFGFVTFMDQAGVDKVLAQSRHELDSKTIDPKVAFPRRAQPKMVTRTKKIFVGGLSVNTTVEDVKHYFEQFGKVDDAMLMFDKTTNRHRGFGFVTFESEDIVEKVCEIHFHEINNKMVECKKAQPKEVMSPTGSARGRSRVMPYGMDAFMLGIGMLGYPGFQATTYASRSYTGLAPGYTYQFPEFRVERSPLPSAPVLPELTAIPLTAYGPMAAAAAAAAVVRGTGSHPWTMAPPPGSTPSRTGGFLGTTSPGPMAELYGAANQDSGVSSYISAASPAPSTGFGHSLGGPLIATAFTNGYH

Binder	binding signal [enrichment R]
B1	0.583
B2	1.51
B3	0.786
B4	0.304
B5	5.68
B6	0.65
